Results from PubChem BioAssay AID894 (National Center for Advancing Translational Sciences (NCATS), 2007).
The whole screen tested about 150,000 compounds, of which about 6,500 (4.3%) were called active. The shares of active, inactive and inconclusive entries below differ from those in the screen. Calls come from the whole dose curve; as a rule, active = well fitted inhibition curve with a large enough effect (not every such curve was filed as active); inconclusive = small, poorly fitted or top-dose-only effect, or another doubt; inactive = no such curve, though single readings can be large or run the other way. No potency is given beside an inconclusive call; the fits are too rough.

Target: 15-hydroxyprostaglandin dehydrogenase [NAD(+)] (Homo sapiens) (UniProt P15428)
Chain of UniProt P15428 (P15428 whole entry, looked up): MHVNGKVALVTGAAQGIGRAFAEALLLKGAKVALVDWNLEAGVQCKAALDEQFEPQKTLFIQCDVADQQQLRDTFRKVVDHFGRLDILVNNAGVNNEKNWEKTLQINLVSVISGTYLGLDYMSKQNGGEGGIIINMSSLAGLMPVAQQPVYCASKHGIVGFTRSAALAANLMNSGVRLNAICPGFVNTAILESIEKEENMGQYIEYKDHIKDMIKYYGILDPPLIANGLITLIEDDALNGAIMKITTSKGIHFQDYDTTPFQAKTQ
Assay: qHTS Assay for Inhibitors of HPGD (15-Hydroxyprostaglandin Dehydrogenase)
Conditions: purified HPGD, NADH fluorescence kinetic, PGE2 substrate; activity change, negative = inhibition: hits give low values
Summary of the method: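 NADH formation kinetics: reaction with 30 uM PGE2 and 1 mM NAD+ (final), 20 nM enzyme, Tris-HCl pH 8 with Tween 20, after 15 min compound preincubation at room temperature. Fluorescence change, last versus first of five reads.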
% is set by controls: 0 for no effect and ±100 for the full control effect; potency is the fitted concentration of half-maximal effect; tags give direction and shape of the fitted curve.

SMILES | Potency | activity change, negative = inhibition
COCCn1c(=O)c(-c2ccc(Cl)cc2)nc2cnc(Oc3ccc(OC)cc3)nc21 | inconclusive [inhibitor, partial curve] | 
COc1cccc(Cn2c(=O)cnc3cnc(N4CCOCC4)nc32)c1 | inconclusive [inhibitor, partial curve] | 
COC(=O)c1scc(C)c1N/N=C(\C)c1cc(F)c(Cl)cc1F | inconclusive [inhibitor, partial curve, poor fit] | 
Cc1ccc2cc(/C=N/NC(=O)[C@H]3C[C@@H]3c3ccccc3)c(Cl)nc2c1 | inconclusive [inhibitor, partial curve] | 
COc1cc(C2NC(=O)c3ccccc3O2)cc(OC)c1OC (stereo not drawn) | inconclusive [inhibitor, partial curve] | 
Nc1ccc2nc(-c3ccccn3)[nH]c2c1 | inconclusive [inhibitor, single point] | 
CCC(C)NCC(=O)Nc1ccc(-c2nc3cc(NC(=O)CNC(C)CC)ccc3o2)cc1 (stereo not drawn) | inconclusive [inhibitor, partial curve] | 
CSc1nc(N)nc(SCC(=O)Nc2ccc(Cl)cc2)c1C#N | inconclusive [inhibitor, partial curve] | 
Cc1ccc(-c2ccc(/C=N/NC(=O)CN3CCCC3)o2)cc1Cl | inconclusive [inhibitor, single point] | 
CC(NC(=O)CSc1nnc(CC(=O)Nc2ccc(Cl)c(Cl)c2)n1C)c1ccccc1 (stereo not drawn) | active: 28.2 µM | 
CC(C)(C)OC(=O)NCCc1nnc(SCc2c(Cl)cccc2Cl)o1 | inconclusive [inhibitor, partial curve] | 
Cc1ccc(-n2[nH]c(C)c(/C=N/Nc3ccc([N+](=O)[O-])cc3[N+](=O)[O-])c2=O)cc1 |  | inactive: -28.4%
Cc1cccc(NC(=O)c2ccccc2NC(=O)C2CCCCC2)c1C | active: 2.51 µM | 
COc1ccc(NC(=O)C2CCCO2)cc1Cl (stereo not drawn) | active: 15.8 µM | 
COc1ccc(-c2cc(C(F)(F)F)n3nc(C(=O)N4CCCCC4)cc3n2)cc1 | inconclusive [inhibitor, partial curve] | 
CCOC(=O)C1=C(Cc2ccc(F)cc2)C(=O)c2ccccc2C1=O | active: 7.94 µM | 
COc1ccc2[nH]c(=O)c(CN(CCO)S(=O)(=O)c3c(C)ccc4nsnc34)cc2c1 | inconclusive [inhibitor, single point] | 
Brc1ccc(CSc2ncnc3nc[nH]c23)cc1 | inconclusive [inhibitor, partial curve] | 
